Data on ten compounds can be found in PubChem BioAssay AID1963871 (Molecular Pharmacology Branch, DTP, NCI, 2024).

This test relates to KRAS-mutant PDC multicell tumor spheroid viability. Put plainly: Anticancer human tumor 521955-158-R2-J5-PDC patient-derived pancreatic carcinoma cell line growth inhibition [KRAS2]. The following applies: for viability, T/C: stronger effect = lower value; for IC50: compound alone. From the text:
Multicellular complex tumor spheroid response to RAS pathway inhibitors in combination with a targeted agents in patient-derived cell lines with oncogenic KRAS variants from multiple cancer types
A high-throughput screen of multi-cell type tumor spheroids was designed to identify active combinations of targeted small molecules and KRAS pathway inhibitors. Complex spheroids include a stromal component modeled by human endothelial cells (HUVEC) and fibroblasts modeled by human mesenchymal stem cells (MSCs). The concentration ranges selected for each drug and investigational agent were based upon clinically achievable concentrations if the clinical Cmax of the agent was known.
Compounds. The drugs and investigational agents: BI-3406 (NSC825286), BAY-293 (NSC824723), batoprotafib (TNO155; NSC825523), sotorasib (AMG 510; NSC818433), MRTX1257 (NSC819558), elimusertib (BAY 1895344; NSC800525), molibresib (GSK525762; NSC774829), temuterkib (LY3214996; NSC803410), venetoclax (NSC766270), alisertib (NSC759677), olaparib (NSC753686), talazoparib (NSC767125), erdafitinib (NSC781556), ipatasertib (NSC767898), cabozantinib (NSC761068), nintedanib (NSC756659), abemaciclib (NSC768073), docetaxel (NSC628503), trametinib (NSC758246), and sapanisertib (NSC764658) were obtained from the National Cancer Institute (NCI) Developmental Therapeutics Program Chemical Repository. The FDA-approved anticancer drug set is available from the Developmental Therapeutics Program. […] The stock solutions were prepared in dimethyl sulfoxide (DMSO, Sigma-Aldrich, St. Louis, MO, cat. D2650) at 800-fold the tested concentration and stored at -70 degrees C prior to their use. All drugs and investigational agents were tested over a range starting from a high concentration at or near the clinical Cmax and decreasing in half-log increments. If the clinical Cmax for an agent had not been determined, the highest concentration tested was 10 microM.
Cell Culture. All cells were maintained in an incubator at 37 degrees C and 5% CO2 with 95% humidity. The PDC lines were cultured according to standard operating procedures established by the NCI PDMR (https://pdmr.cancer.gov/sops/default.htm). Briefly, all PDCs were thawed and cultured in Matrigel-coated flasks prepared with a working solution of 1X Ham's F-12 nutrient mix, without supplementation (Invitrogen, Waltham, MA, cat. 11765054), 100 U/mL penicillin-streptomycin (Invitrogen, cat. 15140122), and 2.5% Matrigel (Corning Inc., Corning, NY, cat. 354248) for the first three passages. All PDCs were cultured in complete DMEM/F-12 media containing advanced DMEM/F-12 (Invitrogen, cat. 12634028), 4.9% defined fetal bovine serum, heat inactivated (HyClone Laboratories Inc., Logan, UT, cat. SH30070.03HI), 389 ng/mL hydrocortisone (Sigma-Aldrich, cat. H4001), 9.7 ng/mL human EGF recombinant protein (Invitrogen, cat. PHG0313), 23.4 microg/mL adenine (Sigma-Aldrich, cat. A2786), 97.3 U/mL penicillin-streptomycin (Invitrogen, cat. 15140122), 1.9 mM L-glutamine (Invitrogen, cat. 25030081), and 9.7 microM Y-27632 dihydrochloride (Tocris Bioscience, Bristol, United Kingdom, cat. 1254). The PDCs were cultured in complete DMEM/F12 media without 9.7 microM Y-27632 dihydrochloride for at least two passages prior to the screen. The established cell line HOP-62 was cultured in RPMI 1640 medium, HEPES (Invitrogen, cat. 22400105) with 10% defined fetal bovine serum (HyClone Laboratories Inc., cat. SH30070.03) and 2 mM L-glutamine (Invitrogen, cat. 25030081). The pooled donor HUVEC were cultured in endothelial cell growth medium 2 (PromoCell, Heidelberg, Germany, cat. C-22011) and the hMSC were cultured in mesenchymal stem cell growth medium 2 (PromoCell, cat. C-28009). For all experiments, HUVEC and hMSC were used at passages </=5, while the malignant cell lines were used at passages </=15. […]

Certain results were filed several times, with different values. They are shown here; other results are not. An entry can have further records. The values listed for one entry are repeats (runs, samples, wells, individuals or studies). A date in brackets names the month of the test. Counts like (3×) count equal records among those shown.
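Further: viability read after seven days of drug exposure.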

Broadly, the IC50 is the concentration needed to halve the response being measured. For the compound `COc1cc2nc(C)nc(NC(C)c3cc(N)cc(C(F)(F)F)c3)c2cc1OC1CCOC1` (stereo unspecified), the viability, T/C is, setting by setting: (compound alone 0.316 µM) 74.2, 86.1, 79.5, 99.6, 86.4, 79, 68.4, 81.9, 71.5, 80.4, 82.3% [2021-08] and 86.5, 93.9, 91.1, 76.4, 83.3, 90.4% [2021-09]; (compound alone 1 µM) 80.3, 78.3, 101, 88.9, 83.1, 72.5, 82.2, 72.6, 75.3, 86.1, 64.3% [2021-08] and 86.8, 90.7, 90.8, 91.8, 81.4, 101% [2021-09]; (compound alone 3.16 µM) 81.6, 85, 102, 91.9, 85.1, 87.3, 86.2, 80.4, 86.5, 86.9, 81.5% [2021-08] and 90, 94.1, 81.6, 89.5, 88.6, 107% [2021-09]; (compound alone 10 µM) 82.5, 82.8, 107, 12.1, 26.7, 3.7, 88.7, 61.1, 65, 75.7, 57.8% [2021-08] and 78.4 (2×), 81.3, 72.7, 79.3, 102% [2021-09]. The IC50 (run of 08/19/2021) is > 10 µM, 5.79 µM, 6.31 µM, 5.06 µM.
Consider `COc1cc2nccc(Oc3ccc(NC(=O)C4(C(=O)Nc5ccc(F)cc5)CC4)cc3)c2cc1OC`, for which the IC50 was > 10 µM, 7.12 µM, 8.78 µM, 8.34 µM, 8.04 µM. Moreover, for the setting “compound alone 3.16 µM”, the viability, T/C was 82.7, 87.1, 93.5, 115, 100%.
Turning to `CC1OCC2(CCN(c3cnc(Sc4ccnc(N)c4Cl)c(N)n3)CC2)C1N` (stereo unspecified), the viability, T/C reads like this: (compound alone 0.1 µM) 40.3, 65.7, 72.9, 72.1, 70.2, 69.6 (2×), 70.5, 74, 66.2, 65.3% [2021-08] and 83.9, 94.5, 74.2, 75.8, 71.3, 77.8, 71.9, 70.5% [2021-09]; (compound alone 0.316 µM) 43.1, 77, 51.5, 49.7, 67.2, 62.7, 57.2, 54.7, 59.6, 68.1, 64.5% [2021-08] and 70.4, 86.7, 76.9, 67.2, 69.2, 80.8, 74, 83.5% [2021-09]; (compound alone 1 µM) 70.5, 107, 98.2, 60.3, 55.3, 54.8, 43.2, 47.7, 53.8, 58, 58.1% [2021-08] and 65.1, 71, 61, 69.5, 66.3, 65.8, 65.5, 70% [2021-09]; (compound alone 3.16 µM) 33.1, 40.3, 40.9, 57.3, 57.4, 54, 36.7, 44.1, 48.6, 56.3, 48% [2021-08] and 58.5, 72.8, 70.3, 67.8, 67.2, 63.2, 53.4, 71.5, 64.3% [2021-09]; (compound alone 10 µM) 36.9, 96.7, 46.7, 51.5, 45.6, 47.3, 29.7, 40.4, 29.1, 45.8, 43.8% [2021-08] and 61.7, 77.9, 64.5, 78.5, 53.1, 61.5, 38.4, 51.8, 58.3% [2021-09]. For the same compound, the IC50 is, setting by setting: (run of 08/19/2021) 1.1 µM, > 10 µM, 2.5 µM, 5.86 µM, 5.61 µM; (run of 08/26/2021) 587 nM, 678 nM, 1.52 µM, 5.97 µM, 3.46 µM.
On to `CC1(C)CCC(CN2CCN(c3ccc(C(=O)NS(=O)(=O)c4ccc(NCC5CCOCC5)c([N+](=O)[O-])c4)c(Oc4cnc5[nH]ccc5c4)c3)CC2)=C(c2ccc(Cl)cc2)C1`, for which the viability, T/C runs as follows: (compound alone 3.16 µM) 88.8, 67, 105, 79.8, 108%; (compound alone 10 µM) 20.5, 7.52, 20.7, 25.4, 45.5%.
Turning to `CC1COCCN1c1cc(-c2ccnn2C)c2ccnc(-c3ccn[nH]3)c2n1` (stereo unspecified), the viability, T/C (compound alone 0.0316 µM) is listed as 55.9, 52.3, 60.6, 40.6, 31.4%.
As for `COC(=O)c1ccc2c(C(=Nc3ccc(N(C)C(=O)CN4CCN(C)CC4)cc3)c3ccccc3)c(O)[nH]c2c1`, the viability, T/C by setting is: (compound alone 0.316 µM) 67, 81.4, 110, 113, 109%; (compound alone 1 µM) 110, 96.7, 105, 113, 130%; (compound alone 3.16 µM) 27.3, 22, 57.4, 14.3, 10.4%.
As to `CNCc1ccccc1-c1csc(C(C)Nc2nc(C)nc3cc(OC)c(OC)cc23)c1` (stereo unspecified), the viability, T/C was 96.1, 109, 101, 83.4, 102, 95, 82.2, 91.3, 90.7, 117, 91% [2021-08] and 112, 97, 97.6, 101, 120, 114% [2021-09] (compound alone 1 µM); 99.6, 0.56, 0.74, 0.13, 0.22, 0.81, 0.18, 0.28, 0.33, 1.19, 1.69% [2021-08] and 0.25, 0.55, 69.4, 0.97, 7.27, 0.21% [2021-09] (compound alone 3.16 µM). The IC50 (run of 08/19/2021) is 1.73 µM and 5.47, 1.83, 1.76, 1.59 µM [2021-08].
On to `C=CC(=O)N1CCN(c2nc(OCC3CCCN3C)nc3c2CCN(c2cccc4cccc(C)c24)C3)CC1CC#N` (stereo unspecified), for which the viability, T/C (compound alone 0.0316 µM) is 101 (2×), 93.2, 103 (3×), 69.4, 95.3, 106, 102, 93.7% [2021-08] and 103, 86.8, 99.2 (2×), 99.4, 92.8% [2021-09]; the viability, T/C (compound alone 0.1 µM) is 120, 92.5, 83.3, 73.1, 108, 104, 97.1, 96.2, 91.4, 96, 101% [2021-08] and 108, 88.5, 97.6, 93.9, 88.1, 103% [2021-09]; the viability, T/C (compound alone 0.316 µM) is 96.2, 77, 82.6, 70.9, 97.6 (2×), 74.5, 85.2, 96.8, 83.8, 93.1% [2021-08] and 96, 100, 92.8, 95.8, 88.8, 96.5% [2021-09]; the viability, T/C (compound alone 1 µM) is 92.4, 76, 95.9, 57.5, 88.7, 72.6, 92.7, 84, 82.5, 71.6, 83.8% [2021-08] and 88.2, 80.9, 81.1, 90, 82.6, 101% [2021-09]; the viability, T/C (compound alone 3.16 µM) is 111, 0.75, 2.66, 2.39, 0.31, 2.34, 17.3, 30.6, 10.1, 5.77, 11% [2021-08] and 16.2, 20.6, 18.2, 24.9, 12.8, 24.7% [2021-09]. For the setting “run of 08/19/2021”, the IC50 was > 3.16 µM, 1.44 µM, 1.71 µM, 1.17 µM, 1.65 µM, 1.36 µM.
With `CN(C)C/C=C/C(=O)Nc1cc2c(Nc3ccc(F)c(Cl)c3)ncnc2cc1O[C@H]1CCOC1`, the viability, T/C (compound alone 0.1 µM) is reported as 76.9, 72.7, 85.9, 86, 97.8%.
As to `COc1cc(OC)cc(N(CCNC(C)C)c2ccc3ncc(-c4cnn(C)c4)nc3c2)c1`, the viability, T/C (compound alone 3.16 µM) was 130, 133, 117, 137, 144%.
